# Reference: ChEMBL document CHEMBL1201862, “PubChem BioAssay data set” (2004)
#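 Dose response: 5 concentrations. Exposure: 48 h. Format: 96-well plates. Endpoint: linear interpolation; highest concentration if not reached. GI50 is the concentration that inhibits growth by half.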 Calls of active or inactive are those of the source. Cut-off read from the data, not from the text of the source: active = GI50 up to about 1.1 µM and inactive = higher.
# Tested on: NCI-H322M
# Assay: NCI anticancer screen, dose series, 48 h
row,SMILES,GI50
1,COc1ccc(/C=C2/C(=O)N(C(=O)c3ccc(Cl)cc3)N=C2C)cc1OC,inactive: > 100 µM
2,O=C(O)C(Cl)(c1ccccc1)c1ccccc1,inactive: > 100 µM
3,CNS(=O)(=O)c1ccccc1C(=N)c1ccccc1,inactive: > 100 µM
4,C/C(=N/NC(=S)Nc1ccc(Cl)cc1)c1cccc(/C(C)=N\NC(=S)Nc2ccc(Cl)cc2)n1,inactive: 1.36 µM
5,Oc1c(Br)c(-c2ccccc2)nc2ccccc12,inactive: > 100 µM
6,CC1=NN(C(=O)CC(=O)Nc2ccccc2Cl)C(=O)C1/N=N\c1ccc(S(=O)(=O)c2ccc(/N=N/C3C(=O)N(C(=O)CC(=O)Nc4ccccc4Cl)N=C3C)cc2)cc1 (stereo not given),inactive: > 100 µM
7,OCC1OC(c2nc(C3=NCCCN3)cs2)C(O)C1O (stereo not given),inactive: > 100 µM
8,Nc1nc(N)c(-c2ccccc2)c(C(=O)Nc2ccc(Cl)c(Cl)c2)n1,inactive: > 100 µM
9,CCOc1ccc(NCC2CC/C(=C\c3ccccc3OC)C2=O)cc1 (stereo not given),inactive: 15.8 µM
10,O=c1n(Cc2ccccc2)c(=O)n2c(=O)n(Cc3ccccc3)c(=O)n12,inactive: > 100 µM
11,COc1ccc(CCc2ccccc2CC(=O)O)cc1,inactive: > 100 µM
12,O=C1NC(=S)N/C1=C\c1ccc(Cl)cc1,inactive: > 100 µM
13,O=C(c1ccccc1)C1N=NN(Cc2ccccc2[N+](=O)[O-])C1C(=O)c1ccccc1 (stereo not given),inactive: > 100 µM
14,COc1ccc(/N=N/c2c(N)nn(C)c2N)cc1,inactive: > 100 µM
15,C[C@]12CC[C@H](O)C=C1CC[C@@H]1[C@@H]2CC[C@]2(C)C(=N/O)/C(=C/c3ccncc3)C[C@@H]12,inactive: 13.6 µM
16,CC1(Cc2cc3c(cc2C2(c4ccc([N+](=O)[O-])cc4)OCCO2)OCO3)OCCO1,inactive: > 100 µM
17,Cc1nc(-c2nc(C)c(C(=O)/C=C/c3ccc([N+](=O)[O-])cc3)s2)sc1C(=O)/C=C/c1ccc([N+](=O)[O-])cc1,inactive: > 100 µM
18,CN1COCc2cc3cc4c(cc3nc21)OCCO4,inactive: > 100 µM

row,SMILES,GI50
1,CC[C@@]1(OC(=O)CN(C)C)C(=O)OCc2c1cc1n(c2=O)Cc2cc3ccccc3nc2-1,active: 0.252 µM
2,CNC(=O)c1cc2nc3ccccc3c(=O)n2c2ccccc12,inactive: > 10 µM
3,CCN(CC)CCSc1c2ccccc2nc2c(OC)ccc(OC)c12,inactive: 22.1 µM
4,[O-][n+]1cc(SCc2ccccc2)ncc1SCc1ccccc1,inactive: > 10 µM
5,COc1ccc(-c2nc(-c3cc4c(ccc5ccccc54)oc3=O)cs2)cc1,inactive: 70.6 µM
6,COc1ccc(N2C(=O)C3c4[nH]c5ccccc5c4C4CC(C)(C)CC(C)(C)C4C3C2=O)cc1 (stereo not given),inactive: 18.5 µM
7,[O-][n+]1c2cccc(O)c2[n+]([O-])c2cccc(O)c21,inactive: > 100 µM
8,Cc1ccc(S(=O)(=O)OC2CN3CCC2CC3)cc1 (stereo not given),inactive: > 100 µM
9,O=C(c1ccco1)C1CC(c2ccc3ccccc3c2O)=NN1 (stereo not given),inactive: > 100 µM
10,CCCCOP1(=O)CC(C)=C(Cl)C(C)(OC)C1 (stereo not given),inactive: > 100 µM
11,CN(C)CCCOc1nc2c(c(=O)n(C)c(=O)n2C)n1C.SC1=NC=NC2=NC=NC12,inactive: 7.01 µM
12,COc1cc2cc(C(=O)N3CC(CCl)c4ccc(NCCN)cc43)[nH]c2c(OC)c1OC (stereo not given),active: 0.324 µM
13,Cn1c(=O)c2c(n(C)c1=O)n1c(=O)c3ccccc3nc1n2C,inactive: > 100 µM
14,CCOC(=O)CC(=O)C(=O)NN=C1NCCN1,inactive: > 100 µM
15,CCOC(=O)NC(=O)c1cn(CCCO)c(=O)[nH]c1=O,inactive: > 100 µM
16,CC(=O)Nc1ccc(C2C(C(=O)Nc3ccccc3)=C(C)NC(C)=C2C(=O)Nc2ccccc2)cc1,inactive: > 100 µM
17,CC[C@]12C=CCN3CCC4(c5cc([C@@]6(C(=O)OC)CC7CN(CCc8c6[nH]c6ccccc86)C[C@@H]6CCC[C@H]76)c(OC)cc5N(C)C4[C@](O)(C(=O)OC)C1OC(C)=O)C32 (stereo not given in full),active: 0.457 µM
